Source: paper PMC4336329 (PLoS ONE, 2015)
The whole screen tested about 310,000 compounds, of which about 14,000 (4.5%) showed an effect of 50% or more. Effects have a minus sign here. Some of the results follow.

What follows are compounds tested against human ether-à-go-go-related gene (hERG) potassium channel (human, UniProt Q12809) (assay: primary screen, population patch clamp on CHO cells stably expressing hERG).
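Further: peak tail current of the secondary pulse compared with the same well before compound.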

Sequence of human ether-à-go-go-related gene (hERG) potassium channel (Q12809 whole entry, looked up): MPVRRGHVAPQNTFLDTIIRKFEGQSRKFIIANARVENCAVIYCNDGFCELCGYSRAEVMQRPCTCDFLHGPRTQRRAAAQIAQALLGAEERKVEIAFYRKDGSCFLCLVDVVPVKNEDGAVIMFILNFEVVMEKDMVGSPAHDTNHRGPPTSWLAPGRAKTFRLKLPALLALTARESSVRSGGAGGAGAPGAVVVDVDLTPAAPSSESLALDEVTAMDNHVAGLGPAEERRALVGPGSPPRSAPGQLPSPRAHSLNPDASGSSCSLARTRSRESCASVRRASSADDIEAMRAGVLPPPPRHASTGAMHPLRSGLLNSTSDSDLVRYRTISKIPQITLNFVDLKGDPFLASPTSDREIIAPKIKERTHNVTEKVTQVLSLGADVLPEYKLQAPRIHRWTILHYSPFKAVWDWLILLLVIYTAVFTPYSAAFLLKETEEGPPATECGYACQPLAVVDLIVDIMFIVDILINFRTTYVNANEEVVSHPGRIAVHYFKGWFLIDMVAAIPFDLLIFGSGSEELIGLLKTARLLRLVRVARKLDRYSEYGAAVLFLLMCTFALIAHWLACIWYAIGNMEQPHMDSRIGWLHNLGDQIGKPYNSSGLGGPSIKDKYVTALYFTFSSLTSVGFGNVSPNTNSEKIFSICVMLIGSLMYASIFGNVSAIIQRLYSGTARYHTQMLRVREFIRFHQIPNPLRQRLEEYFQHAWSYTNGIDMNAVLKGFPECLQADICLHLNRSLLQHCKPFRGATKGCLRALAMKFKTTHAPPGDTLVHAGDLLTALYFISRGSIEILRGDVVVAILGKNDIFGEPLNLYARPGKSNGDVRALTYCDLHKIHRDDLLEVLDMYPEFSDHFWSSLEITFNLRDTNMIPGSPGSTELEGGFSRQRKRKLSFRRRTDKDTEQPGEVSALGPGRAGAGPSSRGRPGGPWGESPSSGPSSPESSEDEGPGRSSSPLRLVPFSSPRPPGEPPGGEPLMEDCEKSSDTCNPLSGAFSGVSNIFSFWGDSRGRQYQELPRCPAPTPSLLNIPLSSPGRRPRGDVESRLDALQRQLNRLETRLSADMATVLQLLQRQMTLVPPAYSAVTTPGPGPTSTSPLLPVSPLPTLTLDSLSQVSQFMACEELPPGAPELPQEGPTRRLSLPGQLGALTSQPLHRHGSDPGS

| SMILES | hERG current change (%, negative = inhibition) at 10uM |
| --- | --- |
| CC(=O)Nc1ccc(S(=O)(=O)NC2CC(=O)N(c3ccc(C)c(C)c3)C2)cc1 (centres unmarked) | 16.7% |
| C=CCSC(=S)Nc1c(C)n(C)n(-c2ccccc2)c1=O | 13.9% |
| COc1ccc(-c2nc(N)nc(C)c2Oc2ccccc2Br)c(O)c1 | -10.7% |
| N/C(=N\OC(=O)c1ccc2ccccc2c1)c1cccc([N+](=O)[O-])c1 | 5.05% |
| COC(=O)c1ccc(Oc2nc(SC)nc(N(C)C)n2)cc1 | 13.2% |
| CCN1C(=O)c2ccccc2S(=O)c2ccc(C(=O)NCCCN3CCCC3=O)cc21 (centres unmarked) | -0.828% |
| CN(C)S(=O)(=O)n1cnc2ccccc21 | 5.24% |
| Cc1ccc(Cn2ccc(NC(=O)c3cc(-c4cccs4)on3)n2)cc1 | 9.1% |
| COc1cccc(-c2nc(CS(=O)(=O)CC(=O)NCCCc3ccccc3)c(C)o2)c1 | 14.9% |
| COc1ccc(CC(NC(C)=O)C(=O)NC2CCN(C(=O)C3CCCCC3)CC2)cc1OC (centres unmarked) | 8.57% |
| Cc1ccc(OCCC(=O)N(CCC(C)C)c2c(N)n(Cc3ccccc3)c(=O)[nH]c2=O)cc1 | -1.67% |
| Cc1cc2c3c(c1)C(C)(c1ccccc1)CC(C)(C)N3C(=O)C21C(C#N)=C(N)OC2=C1C(=O)CC(C)(C)C2 (centres unmarked) | -15.2% |
| Cn1c(SCc2ccc(C(=O)Nc3nccs3)cc2)nnc1-c1ccccc1 | 4.85% |
| CCOc1ccc(NC(=O)c2nn(C)c(C(=O)Nc3ccc(OCC)cc3)c2[N+](=O)[O-])cc1 | 7.08% |
| Nc1nc(SCC(=O)N2CCCC2)[nH]c(=O)c1-c1ccccc1 | 15.2% |
| CCN1CC(CN(C)Cc2nc(-c3ccc(C(F)(F)F)cc3)no2)CC1=O (centres unmarked) | -28.9% |
| COc1cc(N)ccc1C(=O)O | -0.112% |
| COC(=O)c1nc(NNC(=O)c2ccccc2)sc1-c1ccccc1 | 12.1% |
| NC(=O)C1CCN(C(c2ccccc2)c2nnnn2C2CCCC2)CC1 (centres unmarked) | -2.5% |

| SMILES | hERG current change (%, negative = inhibition) at 10uM |
| --- | --- |
| CN(C)c1ccc(/C=N/NC(=O)CNC(=O)c2ccc3c(c2)OCCO3)cc1 | 6.4% |
| CC1CC(C)CN(c2ccc(-n3cnnn3)cc2[N+](=O)[O-])C1 (centres unmarked) | -18.4% |
| CCCn1c(N)c(N(CCOC)C(=O)CSc2cc(C)c3cccc(C)c3n2)c(=O)[nH]c1=O | -3.56% |
| Cc1ccccc1OCCn1cc(/C(N)=N/O)c2ccccc21 | 15.2% |
| CCCC(C(=O)NCc1ccco1)N(C(=O)CNS(=O)(=O)c1ccccc1)c1ccc(OC)cc1 (centres unmarked) | -30.5% |
| COC(=O)c1ccc(NC(=O)CSc2nncn2-c2ccccn2)cc1 | 18.2% |
| CCCC[C@@H]1CCCO[C@@](C(=O)NCc2ccccn2)(C(F)(F)F)C1 | -7.17% |
| CCOC(=O)c1ccc2c(c1)nc(COc1ccc3ccccc3c1)n2CC | 3.73% |
| CN(CCOc1ccccc1)C(=O)C1CCC(=O)N(CCN2CCOCC2)C1 (centres unmarked) | 16.5% |
| COc1ccc(-c2noc(COc3ccc4ccccc4c3Br)n2)cc1OC | -0.635% |
| O=c1oc(-c2cccs2)nc2c1cnn2-c1ccccc1 | -3.72% |
| O=C(CCCOc1ccccc1)N1CCN(c2ccccc2)CC1 | -32.6% |
| Cc1nc(NNC(=O)c2ccccc2)cc(-c2ccccc2)n1 | 3.7% |
| Cc1cccc(-n2c3nc(=O)[nH]c(=O)c-3cc3c(C)nn(-c4ccccc4)c32)c1C | 17.4% |
| O[C@H]1C2CCC1C(N1CCCCC1)CC2 (some centres unmarked) | 3.42% |
| CCC(=O)N1N=C(c2ccc(NS(C)(=O)=O)cc2)CC1c1ccc(N(C)C)cc1 (centres unmarked) | -66.2% |
| CCOC(=O)c1c(NC(=O)c2cccnc2Cl)sc(C(=O)N(C)C)c1C | -27.1% |
| CCN(Cc1ccccc1)S(=O)(=O)c1ccc(C(=O)Nc2nnc(C)o2)cc1 | -14% |
| CCCn1nnnc1SCC(=O)NCc1ccc(OC)cc1 | 2.58% |

| SMILES | hERG current change (%, negative = inhibition) at 10uM |
| --- | --- |
| COc1ccc(-c2noc(CCC(=O)Nc3cc(OC)ccc3OC)n2)cc1 | -14.7% |
| Oc1c(Br)cc(Br)cc1CNc1cccc2cccnc12 | -27.4% |
| Cc1cc(-c2ccccc2C(=O)Nc2ccccc2O)on1 | 4.73% |
| COc1ccc(/C=N/n2c(C)nnc2C)c(OC)c1 | 7.7% |
| CCCCNC(=O)OCCNC(=O)Oc1cccc(C)c1 | -10.9% |
| Cc1nn(C)c(Oc2ccccc2)c1CCNC(=O)CCl | 35.6% |
| COCCNC(=O)/C(C#N)=C/c1c(N2CCN(C)CC2)nc2ccccn2c1=O | 17.6% |
| CCCCCCn1c(CN2CCCCC2)nc2c1c(=O)n(C)c(=O)n2C | -35.7% |
| CC1(C(=O)Nc2ccccc2)Cc2ccccc2C(=O)O1 (centres unmarked) | -1.99% |
| CCc1ccccc1NC(=O)/C(=C/c1ccccc1)c1ccccc1 | -11.7% |
| CC(=O)NCCn1c(SCc2cc(F)ccc2F)nc2ccccc2c1=O | -2.33% |
| c1ccn(-c2ccc(N3CCOCC3)cc2)c1 | -1.83% |
| Oc1ccccc1CN1CCCN(Cc2ccccc2O)C1 | -4.16% |
| S=c1c2c(nc3nc[nH]n13)CCC2 | 16.4% |
| C/C=C\C=C\C(=O)N1CC2(CC(c3cccc(NC(=O)CC)c3)=NO2)C[C@H]1C(N)=O (some centres unmarked) | 1.38% |
| CCc1ccc(S(=O)(=O)Nc2c(C)n(C)n(-c3ccccc3)c2=O)cc1 | -2.47% |
| COc1ccc(C(NC(=O)c2cccnc2)c2cc(Cl)c3cccnc3c2O)cc1OC (centres unmarked) | 10.5% |
| CCOc1ccc(S(=O)(=O)NCCC(=O)NCCOc2ccccc2)cc1 | -20.1% |
